# Results published in the supplement of paper PMC8007513.
# Structures can show the parent of a compound that is named as a salt. ± gives the standard error. About 130 (10%) of roughly 1,300 compounds showed an effect of 50% or more. This is a selection; strong and weak results do not stand in their true shares.
# System: Trichoderma virens ATCC 9645
# Test: growth yield (OD600) with compound + IPBC relative to untreated control; higher = less growth inhibition
# Conditions: compound concentration: 100 uM, IPBC concentration: 200 ng/ml
# Summary of the method: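 Trichoderma virens ATCC 9645 spores from 7-day potato dextrose agar plates were suspended in potato dextrose broth at 15,000 spores ml^−1. Aliquots of 100 μl with library compounds at 100 μM final, with or without a co-applied biocide at 200 ng ml^−1, were grown in 96-well plates at 30 °C. OD600 was read at 40 h and 72 h on a BioTek EL800. Growth is expressed relative to the control without either agent, as means of duplicate screens.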
Structure (SMILES),growth yield (40 h) [%],growth yield (72 h) [%]
CC(C)(C)NCC(O)c1cc(Cl)c(N)c(Cl)c1 (configuration not stated) [Clenbuterol hydrochloride] + CCCCNC(=O)OCC#CI [3-iodo-2-propynyl butylcarbamate (IPBC)],78.8 ± 0.95,89.7 ± 2.6
CC(=O)N[C@@H](CC(C)C)C(=O)O [N-Acetyl-L-leucine] + CCCCNC(=O)OCC#CI [3-iodo-2-propynyl butylcarbamate (IPBC)],86.57 ± 0.16,93.8 ± 2.3
Nc1nc(F)nc2c1ncn2[C@@H]1O[C@H](CO)[C@@H](O)[C@@H]1O [Fludarabine] + CCCCNC(=O)OCC#CI [3-iodo-2-propynyl butylcarbamate (IPBC)],85.3 ± 2.4,86.6 ± 1.1
Clc1ccc(C(Cn2ccnc2)OCc2c(Cl)cccc2Cl)c(Cl)c1 (configuration not stated) [Isoconazole] + CCCCNC(=O)OCC#CI [3-iodo-2-propynyl butylcarbamate (IPBC)],4.13 ± 0.64,2.83 ± 0.32
NC(=O)N1c2ccccc2C=Cc2ccccc21 [Carbamazepine] + CCCCNC(=O)OCC#CI [3-iodo-2-propynyl butylcarbamate (IPBC)],92.8 ± 1.9,93.8 ± 1.1
CN(C)CCN(Cc1cccs1)c1ccccn1 [Methapyrilene hydrochloride] + CCCCNC(=O)OCC#CI [3-iodo-2-propynyl butylcarbamate (IPBC)],91.2 ± 12,97 ± 6.6
COc1c(O[C@@H]2O[C@H](CO)[C@@H](O)[C@H](O)[C@H]2O)cc2c(c1OC)-c1ccc(SC)c(=O)cc1[C@@H](NC(C)=O)CC2 [Thiocolchicoside] + CCCCNC(=O)OCC#CI [3-iodo-2-propynyl butylcarbamate (IPBC)],84.5 ± 1.3,90 ± 1.1
O=C(Cn1ccnc1[N+](=O)[O-])NCCO [Etanidazole] + CCCCNC(=O)OCC#CI [3-iodo-2-propynyl butylcarbamate (IPBC)],91.3 ± 3.3,92.2 ± 3.9
CCN(CC)CCNC(=O)c1cc(S(C)(=O)=O)ccc1OC [Tiapride hydrochloride] + CCCCNC(=O)OCC#CI [3-iodo-2-propynyl butylcarbamate (IPBC)],82.12 ± 0.48,92.61 ± 0.52
O=C(CCCN1CC=C(n2c(=O)[nH]c3ccccc32)CC1)c1ccc(F)cc1 [Droperidol] + CCCCNC(=O)OCC#CI [3-iodo-2-propynyl butylcarbamate (IPBC)],76.72 ± 0.16,90.72 ± 0.73
C#CCN(C)Cc1ccccc1 [Pargyline hydrochloride] + CCCCNC(=O)OCC#CI [3-iodo-2-propynyl butylcarbamate (IPBC)],89.3 ± 4.5,95.5 ± 2.4
COc1ccc2cc(CCC(C)=O)ccc2c1 [Nabumetone] + CCCCNC(=O)OCC#CI [3-iodo-2-propynyl butylcarbamate (IPBC)],39.7 ± 1.6,–
CCn1cc(C(=O)O)c(=O)c2ccc(C)nc21 [Nalidixic acid sodium salt] + CCCCNC(=O)OCC#CI [3-iodo-2-propynyl butylcarbamate (IPBC)],49.2 ± 1.6,–
Cc1ccc(S(=O)(=O)NC(=O)NN2CC3CCCC3C2)cc1 (configuration not stated) [Gliclazide] + CCCCNC(=O)OCC#CI [3-iodo-2-propynyl butylcarbamate (IPBC)],92.6 ± 4.6,96.7 ± 3.4
CCCCS(=O)(=O)N[C@@H](Cc1ccc(OCCCCC2CCNCC2)cc1)C(=O)O [Tirofiban hydrochloride] + CCCCNC(=O)OCC#CI [3-iodo-2-propynyl butylcarbamate (IPBC)],85.5 ± 1.9,91.3 ± 0.94
COc1nc(C)nc(Cl)c1NC1=NCCN1 [Moxonidine] + CCCCNC(=O)OCC#CI [3-iodo-2-propynyl butylcarbamate (IPBC)],96.7 ± 5.9,99.6 ± 4
Cc1ccc(C(=O)c2cc(O)c(O)c([N+](=O)[O-])c2)cc1 [Tolcapone] + CCCCNC(=O)OCC#CI [3-iodo-2-propynyl butylcarbamate (IPBC)],47.5 ± 3.3,56 ± 2.7
COc1ccc(C(=O)NCc2cccnc2)cc1C(=O)NCc1cccnc1 [Picotamide monohydrate] + CCCCNC(=O)OCC#CI [3-iodo-2-propynyl butylcarbamate (IPBC)],91.2 ± 5.1,97 ± 3.9
O=C(NCCNCC(O)COc1ccc(O)cc1)N1CCOCC1 (configuration not stated) [Xamoterol hemifumarate] + CCCCNC(=O)OCC#CI [3-iodo-2-propynyl butylcarbamate (IPBC)],92.4 ± 1.6,94.39 ± 0.63
COc1ccc(CCN2CCC(Nc3nc4ccccc4n3Cc3ccc(F)cc3)CC2)cc1 [Astemizole] + CCCCNC(=O)OCC#CI [3-iodo-2-propynyl butylcarbamate (IPBC)],5.08,4.3 ± 0.32
CCN(Cc1ccncc1)C(=O)C(CO)c1ccccc1 (configuration not stated) [Tropicamide] + CCCCNC(=O)OCC#CI [3-iodo-2-propynyl butylcarbamate (IPBC)],84.8 ± 0.95,93.97 ± 0.84
CN(C)CCOC1=Cc2ccccc2Sc2ccc(Cl)cc21 [Zotepine] + CCCCNC(=O)OCC#CI [3-iodo-2-propynyl butylcarbamate (IPBC)],38.6 ± 0.16,97.7
CCN(CC)CC#CCOC(=O)C(O)(c1ccccc1)C1CCCCC1 (configuration not stated) [Oxybutynin chloride] + CCCCNC(=O)OCC#CI [3-iodo-2-propynyl butylcarbamate (IPBC)],74.18 ± 0.16,88.52 ± 0.63
Cc1ncc([N+](=O)[O-])n1CCO [Metronidazole] + CCCCNC(=O)OCC#CI [3-iodo-2-propynyl butylcarbamate (IPBC)],112 ± 4.5,109 ± 4.9
OC(CCN1CCCCC1)(c1ccccc1)C1CC2C=CC1C2 (configuration not stated) [Biperiden hydrochloride] + CCCCNC(=O)OCC#CI [3-iodo-2-propynyl butylcarbamate (IPBC)],89.9 ± 7.3,95 ± 4
CN1C2CCCC1CC(NC(=O)c1nn(C)c3ccccc13)C2 (configuration not stated) [Granisetron] + CCCCNC(=O)OCC#CI [3-iodo-2-propynyl butylcarbamate (IPBC)],80.1 ± 4.1,86.2 ± 2.3
CC(=O)O[C@H]1C[C@H](O[C@H]2[C@@H](O)C[C@H](O[C@H]3[C@@H](O)C[C@H](O[C@H]4CC[C@@]5(C)[C@H](CC[C@@H]6[C@@H]5C[C@@H](O)[C@]5(C)[C@@H](C7=CC(=O)OC7)CC[C@]65O)C4)O[C@@H]3C)O[C@@H]2C)O[C@H](C)[C@H]1O[C@@H]1O[C@H](CO)[C@@H](O)[C@H](O)[C@H]1O [Lanatoside C] + CCCCNC(=O)OCC#CI [3-iodo-2-propynyl butylcarbamate (IPBC)],91 ± 2.1,91.35 ± 0.32
